Our source for the body weight change values is patent US20190105194A1, “METHODS OF TREATING A SUBJECT WITH AN OCULAR CONDITION RESPONSIVE TO STEROID THERAPY” (Aciont Inc., priority 2017, published 2019).

For the data set, the system named is New Zealand White rabbits. Particulars: rabbit, in vivo.

As to `C[C@@H]1C[C@H]2[C@@H]3CCC4=CC(=O)C=C[C@]4(C)[C@@]3(F)[C@@H](O)C[C@]2(C)[C@@]1(O)C(=O)COP(=O)(O)O` [DSP, dexamethasone sodium phosphate], the body weight change entry is reported as “no significant weight changes”.
